Test results as given in PMC12136788.
This is one part of the list.

T1: UNK ZnF1-3 (human, UniProt Q9C0B0 31-174)
T1 sequence: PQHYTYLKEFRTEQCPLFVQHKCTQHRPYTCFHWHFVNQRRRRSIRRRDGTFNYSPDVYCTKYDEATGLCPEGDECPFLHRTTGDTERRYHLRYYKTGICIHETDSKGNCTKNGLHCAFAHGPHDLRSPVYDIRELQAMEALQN

B1: chr5:37680062:37680063:+_ENSMUSG00000029121_ENSMUST00000031004|mus_hu|mus_mus_mus_hu_False|88_98 (ssRNA)
RNA: GGGAGUUCUACAGUCCGACGAUCUUUGGGUGUAGCUGGCACCUCGUACACAGGCCCGUCAUACAUGCCCCUGGAAACCCCUUGCAAUCCAAAAACCUUAUUCCUGAUUUUGACGCGCUGGUACAGGUGCUCCGGGAACGCCUUCAACAGAGGAUUGAGCAUCA
B2: 100766234_100766354_1031_CDS_ENSMUSG00000004040_ENSMUST00000127638|mouse|control|control (ssRNA)
RNA: GGGAGUUCUACAGUCCGACGAUCGUCCAGGCAGAUGUUGGGAGGGCCUCCGAUGCACGCGAUCUGCUGCCGCCUCUUCCAGUCAGCCAGCUCUUCAUCAGUCAGUGUCUUCUGCACGUACUCCAUUGCUGACAAGAGCCCCGCCAACAGAGGAUUGAGCAUCA
B3: chr4:134901438:134901439:-_ENSMUSG00000028809_ENSMUST00000134854|mus_mus|motif|central (ssRNA)
RNA: GGGAGUUCUACAGUCCGACGAUCCUUCCGACUCCCUACUGCAACUCAACCACCUUGAGUUUAAUGUUAUAUCAUUUAUCGGAAUUGCAAAAGACGAACAAGCAAUAAUGAGUACACAACCACAAAAAAAGAAAAGAUUGUUUACAACAGAGGAUUGAGCAUCA
B4: chr12:35831226:35831227:+_ENSMUSG00000020590_ENSMUST00000048519|mus_mus|FALSE|FALSE (ssRNA)
RNA: GGGAGUUCUACAGUCCGACGAUCUCAGCAGAAGACAUAUAGCCUCUUUGUGUCUAUGUUCAUCUGUGCAACAAGUGCACUAAAUAGAAUAAUUUUAUUAACCAGAGAAUACUGUACUCUACUCAUCGGUUAAACACUCUACACCAACAGAGGAUUGAGCAUCA
B5: chr17:57763070:57763071:+_ENSG00000141367_ENST00000269122|hu_mus|FALSE|FALSE (ssRNA)
RNA: GGGAGUUCUACAGUCCGACGAUCGGCGAAAUCCAUGAUAUUAUGUCUCCAUGCGGUUUCCAGGACGACAUCUGGCCUUAAGAGAUCAUAACAGGUAAAGAGACAAGCUCCAAAGCAUUCUCUUUUUUCUUCCUGCAAAAACCACAACAGAGGAUUGAGCAUCA
B6: chr2:170668292:170668293:+_ENSG00000138385_ENST00000260956|hu_mus|FALSE|FALSE (ssRNA)
RNA: GGGAGUUCUACAGUCCGACGAUCACCUAAUUCGCUUUUCUUUUUAAAAGCUUCUGAAGACAAAAAGCAGCUUAAAAUCUAACUAAGGAAUAAAAACACUGCUUACUAAAUAAACUACUUGUCUCUAGCACCAUUUUCUCUUUUCAACAGAGGAUUGAGCAUCA
B7: chr11:87794976:87794977:-_ENSMUSG00000020483_ENSMUST00000020775|perfect_dup|motif|central (ssRNA)
RNA: GGGAGUUCUACAGUCCGACGAUCGCAACGCCGCCUGCUUGCCAUCGCUGCCGCCGCCACUGACACCUUCACCAUGGCCACCGGGCCUGACUUGAAGAGGAGGAUUGCAACUUGACCCAAGUAAAAAUAGAUGAAGUGCUUUGUCAACAGAGGAUUGAGCAUCA
B8: chr17:3197573:3197574:+_ENSMUSG00000046201_ENSMUST00000076734|mus_hu|motif|central (ssRNA)
RNA: GGGAGUUCUACAGUCCGACGAUCCCUCACAAGAUUCUCUCUUAUAUCUACAGGAGGUCUUCCAAAAUGAUCCCUACCAUCGGGUGGAGGCCGUCCAGGACCUUCUCUUGGAUCUAUAGGCCGCCCAACCACAUCUCUAACAUCCAACAGAGGAUUGAGCAUCA
B9: chr17:12908325:12908326:-_ENSG00000006744_ENST00000338034|hu_mus|FALSE|FALSE (ssRNA)
RNA: GGGAGUUCUACAGUCCGACGAUCCACCAGCGCCACAGGUGCAUCAGCCUCUGCCUGGUACCUUUUAAAGGUGUCGUUCUCACAGAUGGGCAGGAUGAAUCCUUCAUCAGGACACUCUACCACAAUGAAUACAAGACCAGGAUCCAACAGAGGAUUGAGCAUCA
B10: chr8:121872745:121872746:+_ENSMUSG00000031839_ENSMUST00000034300|mus_hu|motif|central (ssRNA)
RNA: GGGAGUUCUACAGUCCGACGAUCCUUUGUGGUGACAAUCAUAUGGAUCACCUUCCAGGUCAUCAGUAUUGGCCUCGGGGUUUAGCACUCCUGGCACUGCAUUUUUGAGUGGCCAGAGAUAAAGGUAUUAUCCCUGUCUUCUAUCAACAGAGGAUUGAGCAUCA
B11: chr2:131005039:131005040:-_ENSMUSG00000068267_ENSMUST00000089510|mus_mus|FALSE|FALSE (ssRNA)
RNA: GGGAGUUCUACAGUCCGACGAUCGUACCACAGGCUGGUCUCGGUGGCGCUGAACACGUCCUGCGAGGCGUAGCCCUCAGCUACCGACGGCGGCUGCUCCUCCCUCGUGUGCCAGCCGGGUGUGCUCCCACCGCUGCCCUCGGACAACAGAGGAUUGAGCAUCA
B12: 49662626_49662861_1819_CDS_ENSMUSG00000028309_ENSMUST00000029989|mouse|control|control (ssRNA)
RNA: GGGAGUUCUACAGUCCGACGAUCGAGGGCACUGCCACUGCGCAGACGUGUCUUGUUCAGGUCAGACUGCGCCUCUCUCAGCUUCCGUUUAUACCUUAGGACUUCACCCUUCAGCUGGUGGUUAUGAUUCUGGAGGCUGCUAAUCAACAGAGGAUUGAGCAUCA
B13: chr4:160235802:160235803:+_ENSG00000109756_ENST00000264431|hu_hu|FALSE|FALSE (ssRNA)
RNA: GGGAGUUCUACAGUCCGACGAUCGCUCAUCAGAGGAUCUGAUGCUCUCUCAAUGUCUUCUUCAUCGUCGUCGUCUUCGGAAUCCACUGCUGUUUCUGGCAACCCACUCAGGUCCAUAUCACCAGCCUCGCUUUCUGUGGCCUGCAACAGAGGAUUGAGCAUCA
B14: chr18:9122563:9122564:+_ENSG00000178127_ENST00000318388|hu_hu|FALSE|FALSE (ssRNA)
RNA: GGGAGUUCUACAGUCCGACGAUCGACCUGAAUGUGAUACUUUCCAACUGGCUUUCGAUUAUACAUUGUAUAAAAAGUUGCUACUUCAUAUACUCUCAUUGGAGGUACUUGUAAAACUUCUGCAACCUUGUUCAUAGCAGAGAUCAACAGAGGAUUGAGCAUCA
B15: chr3:158399885:158399886:+_ENSG00000168827_ENST00000264263|hu_mus|motif|central (ssRNA)
RNA: GGGAGUUCUACAGUCCGACGAUCCUCAUCAGAAAACUCCAACUUCGUGUAGUCCUCUGGGGGCAAGGGCUCCAGCACUCCGGUUACUUUUCCAAACUGGCCGGCACCACCCGACUGCUUUUUAUGUGUAAAAUCAAACGGCACCAACAGAGGAUUGAGCAUCA
B16: chr2:115890611:115890612:-_ENSMUSG00000027210_ENSMUST00000102538|mus_mus|FALSE|FALSE (ssRNA)
RNA: GGGAGUUCUACAGUCCGACGAUCCAAUAAACUCCUGGAUGUGUCGUAUAUUUAAUAUCCCAGUCCGGAUAAGAAAGUGAGCUAGGUUGAAGAGUCCUUUUUUUCCAAACCAAGGAGACUUCUCCCAAUUUUCCAAUGUUAUUUCAACAGAGGAUUGAGCAUCA
B17: chr2:23028566:23028567:+_ENSMUSG00000026775_ENSMUST00000028117|mus_hu|FALSE|FALSE (ssRNA)
RNA: GGGAGUUCUACAGUCCGACGAUCGGUUUUUUGUGUGAGUGCUUGAGCUUUCAGAAAACCUUCCGCAAAACCAGUUUUAAAUGCAUCUUGGUGAGCUUCAGGUAUAUUUUUGGUUUUCAUGAGUUUGUCCAAACUCUCAACAUCCAACAGAGGAUUGAGCAUCA
B18: chr6:38489255:38489256:+_ENSMUSG00000019689_ENSMUST00000019833|mus_hu|FALSE|FALSE (ssRNA)
RNA: GGGAGUUCUACAGUCCGACGAUCACGAGUUGUAUCUCCCUUGCCAUGAAAUUCCUGAUGUAGGGCCACAUGUUUCCGGAUGCUACGCAGGAGGCAGAGAUAGGUGGCAGCUUGGAAAUGAAGCUCAUGUUGGGCUCUGCACAACAACAGAGGAUUGAGCAUCA
B19: chr12:39756943:39756944:-_ENSG00000139116_ENST00000544797|hu_mus|hu_hu_hu_mus_False|28_98 (ssRNA)
RNA: GGGAGUUCUACAGUCCGACGAUCGGUUUGGCUGUUACCCCCGAGGGAAUCCUGCAAGAGUCUUGUCAGCUUAGAGUCUCUGUAAGGGACAUGGGUGGCUCUCUUGCUCUUGUCUCCCAAGGCGCUGAUUACAUUCCCAAGAGCCAACAGAGGAUUGAGCAUCA
B20: 107591758_107592564_3500_CDS_ENSG00000091136_ENST00000393561|human|control|control (ssRNA)
RNA: GGGAGUUCUACAGUCCGACGAUCCCCCGUGAACUCAUUGCAAGAUGGCCCGAAGGAAUGAGCAGCAUUGCAGUUGCAUGGGUCACAGCCAGUGCCACUGGCCAGCUGCCAGGUAUUGGGCGCACAGCGGUCACAGUUCUGCCCCAACAGAGGAUUGAGCAUCA
B21: chr10:8116392:8116393:+_ENSG00000107485_ENST00000346208|hu_mus|FALSE|FALSE (ssRNA)
RNA: GGGAGUUCUACAGUCCGACGAUCCAUCAAACAACUGAAGGGAAACAAAACUGACAGUGUGCCCAUUUGGACAUCAGACUUAGUGGUUUCUUCUGUAUCUCCAUACUUUAAUCCCCCUAUAUUCCUUAAAACUCUUGGCGUCCUCAACAGAGGAUUGAGCAUCA
B22: chr5:134670393:134670394:-_ENSG00000113648_ENST00000304332|hu_mus|FALSE|FALSE (ssRNA)
RNA: GGGAGUUCUACAGUCCGACGAUCAGGGGAGGGACCGCUGCUCCGCUGCUCUGUGUUAAUCAGGACUUCAUUAGAGUGAAACUAUAAAAUCCUCUAGGUUGACUAAGUCAGACACGGUCUGGAAAGCAGUGCUUAACAAGGACGCAACAGAGGAUUGAGCAUCA

Target: T1, UNK ZnF1-3
Experiment: nsRBNS (natural sequence RNA bind-n-seq); RBNS binding buffer (assumed for nsRBNS): 25 mM Tris pH 7.5, 150 mM KCl, 3 mM MgCl2, 0.01% Triton X-100, 500 ug/ml BSA, 20 U/ml SUPERase-In, 4 C; UNK is unkempt and MSI1 is Musashi-1; names of the RNAs are library labels; protein concentration not given here; high values mean tight binding

**Q.** How did the binding signal turn out when B1 was run?
**A.** 0.697 enrichment R

**Q.** How did the binding signal turn out when B2 was run?
**A.** 0.649 enrichment R

**Q.** With B3 as the binder, how does the binding signal read?
**A.** 1.46 enrichment R

**Q.** Which binding signal does the source give for B4 here?
**A.** 0.529 enrichment R

**Q.** B5 was tested. Which binding signal did it give?
**A.** 0.535 enrichment R

**Q.** B6 was tested. Which binding signal did it give?
**A.** 1.21 enrichment R

**Q.** For B7, which binding signal is on record?
**A.** 1.82 enrichment R

**Q.** Which binding signal does the source give for B8 here?
**A.** 0.852 enrichment R

**Q.** With B9 as the binder, how does the binding signal read?
**A.** 0.935 enrichment R

**Q.** With B10 as the binder, how does the binding signal read?
**A.** 0.465 enrichment R

**Q.** With B11 as the binder, how does the binding signal read?
**A.** 0.748 enrichment R

**Q.** How did the binding signal turn out when B12 was run?
**A.** 0.652 enrichment R

**Q.** How did the binding signal turn out when B13 was run?
**A.** 0.843 enrichment R

**Q.** With B14 as the binder, how does the binding signal read?
**A.** 0.703 enrichment R

**Q.** Which binding signal does the source give for B15 here?
**A.** 0.892 enrichment R

**Q.** For B16, which binding signal is on record?
**A.** 0.661 enrichment R

**Q.** B17 was tested. Which binding signal did it give?
**A.** 1.53 enrichment R

**Q.** For B18, which binding signal is on record?
**A.** 1.02 enrichment R

**Q.** B19 was tested. Which binding signal did it give?
**A.** 0.765 enrichment R

**Q.** With B20 as the binder, how does the binding signal read?
**A.** 1.39 enrichment R

**Q.** B21 was tested. Which binding signal did it give?
**A.** 1.05 enrichment R

**Q.** Which binding signal does the source give for B22 here?
**A.** 1.36 enrichment R
